Measurements as given in paper PMC4336329 (PLoS ONE, 2015).
In all, about 310,000 compounds went through this assay and about 14,000 (4.5%) showed an effect of 50% or more. Effects have a minus sign here. The list shows a part of the results.

target: human ether-à-go-go-related gene (hERG) potassium channel (human, UniProt Q12809); assay: primary screen, population patch clamp on CHO cells stably expressing hERG
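Note: peak tail current of the secondary pulse compared with the same well before compound.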

human ether-à-go-go-related gene (hERG) potassium channel, sequence (Q12809 whole entry, looked up): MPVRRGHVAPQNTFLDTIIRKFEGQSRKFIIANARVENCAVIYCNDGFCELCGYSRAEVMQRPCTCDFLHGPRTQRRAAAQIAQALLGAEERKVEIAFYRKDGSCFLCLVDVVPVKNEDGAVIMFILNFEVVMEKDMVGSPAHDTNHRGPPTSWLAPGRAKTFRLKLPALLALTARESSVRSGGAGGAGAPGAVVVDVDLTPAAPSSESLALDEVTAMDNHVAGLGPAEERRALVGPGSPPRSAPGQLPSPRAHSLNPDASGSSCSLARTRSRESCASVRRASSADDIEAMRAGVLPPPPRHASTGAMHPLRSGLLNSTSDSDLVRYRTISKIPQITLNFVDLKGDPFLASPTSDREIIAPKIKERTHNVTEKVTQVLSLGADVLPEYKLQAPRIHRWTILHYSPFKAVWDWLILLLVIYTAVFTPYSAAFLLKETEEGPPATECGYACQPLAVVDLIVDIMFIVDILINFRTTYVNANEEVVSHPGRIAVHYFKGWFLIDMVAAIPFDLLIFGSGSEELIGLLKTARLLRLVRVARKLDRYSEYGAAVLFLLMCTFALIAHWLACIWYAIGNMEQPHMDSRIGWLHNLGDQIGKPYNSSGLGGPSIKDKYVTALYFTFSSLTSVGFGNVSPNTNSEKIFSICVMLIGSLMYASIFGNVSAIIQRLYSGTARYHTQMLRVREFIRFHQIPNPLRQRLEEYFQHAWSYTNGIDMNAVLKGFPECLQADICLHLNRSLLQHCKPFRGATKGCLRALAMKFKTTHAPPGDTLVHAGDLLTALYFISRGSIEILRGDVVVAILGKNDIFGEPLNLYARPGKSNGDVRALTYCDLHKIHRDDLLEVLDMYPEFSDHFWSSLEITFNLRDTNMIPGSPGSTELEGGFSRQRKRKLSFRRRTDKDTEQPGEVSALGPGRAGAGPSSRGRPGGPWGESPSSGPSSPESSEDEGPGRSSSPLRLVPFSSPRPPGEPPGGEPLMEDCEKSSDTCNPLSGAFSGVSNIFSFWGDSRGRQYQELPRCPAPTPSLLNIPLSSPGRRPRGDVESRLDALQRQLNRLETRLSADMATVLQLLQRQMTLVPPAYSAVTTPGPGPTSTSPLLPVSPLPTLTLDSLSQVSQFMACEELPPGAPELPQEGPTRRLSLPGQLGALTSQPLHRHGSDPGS

In order of falling “hERG current change (%, negative = inhibition) at 10uM” value:
1. O=C(N/N=C/c1ccc2c(c1)OCO2)c1cc(-c2ccccc2)nc2ccccc12  24.4%
2. COc1ccc(NS(=O)(=O)c2ccc(N3CCN(CCO)CC3)c([N+](=O)[O-])c2)cc1  19%
3. CCOC(=O)N1CCN(C(=O)CCl)CC1  16.4%
4. CC(SCc1cc(=O)n2c([nH]c3ccccc32)c1C#N)C(=O)O (centres unmarked)  16.3%
5. CCOCCc1c(O)nc(SCC(=O)NCc2ccco2)[nH]c1=O  15.5%
6. CCOC(=O)CC(NC(=O)c1ccc(C)cc1)c1ccc(OC)cc1 (centres unmarked)  14.3%
7. O=C(N/C(=C/c1ccco1)C(=O)N1CCCCCC1)c1ccccc1  13.2%
8. S=C(Nc1ccc2nccnc2c1)N1CCOCC1  10.6%
9. Cc1cccc(C(=O)Nc2onc(C)c2C#N)c1  9.49%
10. COc1ccc(NC(=O)NCc2ccccn2)c(OC)c1  9.17%
11. Fc1ccc(-n2c(-c3ccc4c(c3)OCO4)n[nH]c2=S)cc1Cl  9.05%
12. O=C(CNC(=O)c1ccco1)N/N=C/c1ccccc1[N+](=O)[O-]  8.7%
13. CCOc1ccc(N=C2SC(C(=O)O)CC(=O)N2C)cc1 (centres unmarked)  6.71%
14. CC1(C)Cc2c(sc(NC(=O)C(=O)N3CCCC3)c2C(N)=O)CO1  5.08%
15. Cc1ccc(-c2c[n+](CC(=O)c3cccs3)c3n2CCC3)cc1.[Br-]  5.08%
16. O=C(NC1CCCN(Cc2ccccc2F)C1)c1cccc(N2CCCC2=O)c1 (centres unmarked)  4.16%
17. CCN(CC(=O)Nc1ccc(NC(C)=O)cc1)C(=O)c1ccccc1CCc1ccccc1  4.01%
18. COC(=O)c1ccc2nc(NC(=O)CN3C(=O)CCC3=O)sc2c1  3.67%
19. CSc1ncccc1C(=O)OCC(=O)NC1CCC(C)CC1 (centres unmarked)  0.646%
20. CC1CCCCN1Cc1ccc(-c2nnn(CC(=O)NC3CCCCC3)n2)cc1 (centres unmarked)  -0.223%
21. COc1ccc(C(=O)NNC(=O)c2cnccn2)cc1[N+](=O)[O-]  -1.7%
22. COc1ccc(CCNc2cc(-c3ccccc3)nc3ncnn23)cc1  -2.18%
23. CN=C1SC(CC(=O)Nc2cccc(C(F)(F)F)c2)C(=O)N1C (centres unmarked)  -2.47%
24. COc1ccc(NC2CCCN(C(=O)CCc3cccc(F)c3)C2)cc1 (centres unmarked)  -2.67%
25. CCOc1ccccc1C1CC(c2cccs2)=NN1S(C)(=O)=O (centres unmarked)  -3.48%
26. COc1cc(C(c2nnnn2C2CCCC2)N2CCN(C(=O)c3ccco3)CC2)cc(OC)c1OC.Cl (centres unmarked)  -4.24%
27. O=C(NCCc1ccccc1)C1CCCN1S(=O)(=O)c1cccc2nsnc12 (centres unmarked)  -6.32%
28. CC(=O)Nc1ccc(N/C(C)=C/C(=O)c2cccnc2)cc1  -7.53%
29. O=C(CCS(=O)(=O)c1cc(Br)cc2c1N(C(=O)C1CC1)CC2)N1CCN(c2ccccn2)CC1  -8.14%
30. CC1=CC(=O)N(c2ccc(C)cc2)C1c1ccc(Cl)cc1 (centres unmarked)  -8.48%
31. CC(C)(C)NC(=O)NC(=O)COC(=O)Cc1c(Cl)cccc1Cl  -11.3%
32. Cc1ccc(N(CC(=O)N/N=C/c2ccc(OC3CSC3)cc2)S(=O)(=O)c2ccccc2)cc1  -11.4%
33. O=C(NCCc1c[nH]c2ccccc12)c1ccc(Cl)cc1  -12.7%
34. CN(CC(=O)Nc1ccc(F)cc1)C(=O)COC(=O)CSc1ccc(F)cc1  -16%
35. COc1cccc(NC(=O)CN(C2=NC3CS(=O)(=O)CC3S2)c2cccc(C)c2)c1 (centres unmarked)  -24.4%
36. CN(CC(O)COc1ccc(S(=O)(=O)N2CCOCC2)cc1Cl)C1CCCCC1.Cl (centres unmarked)  -30%
37. CCOC(=O)c1cc2c(n(-c3ccc(Cl)cc3)c1=O)CCCC2=O  -33.6%
38. O=C(COc1ccc(Cl)cc1)NCCN1CCCCC1  -40%
39. Cc1cccc(N2CCN(CCCNC(=O)c3ccc(NC(=O)C4=CSCCO4)cc3)CC2C)c1 (centres unmarked)  -47.3%
40. CC(=O)Nc1ccccc1C(=O)C(=O)Nc1cccc(C(=O)NCc2ccc(C)cc2)c1  -58.3%
41. COc1ccc(S(=O)(=O)N2CCCC(C(=O)N3CCN(c4ccccc4)CC3)C2)cc1Cl (centres unmarked)  -62%
42. Cc1nc2cc(F)ccc2n1C1CCN(Cc2nnnn2CCc2ccccc2)CC1.Cl  -65.7%
43. C=CCn1cccc(C(=O)Nc2ccc(C)c(C)c2)c1=O  -71.9%
44. Cc1ccc(CN2CCN(CCCc3ccccc3)CC2CCO)cc1 (centres unmarked)  -76.4%
